Reference: PubChem BioAssay (NCATS)
Several values for one entry are separate records, joined by “and”; a condition that tells them apart may be missing. Equal entries are not always repeated. This is one part of the list. The main result of the screen is listed elsewhere. These columns were measured beside it and carry no call. The list favours compounds with an active or inconclusive main result. For some assays here: Words in brackets tell the shape of the fitted curve; partial curves, single points and poor fits give uncertain potencies.

Legend:
[1] = qHTS Assay for Lipid Storage Modulators (AID 1519); conditions: Drosophila S3 cells, BODIPY lipid droplet/cell ratio, laser cytometry, cells loaded with oleic acid
Method in brief: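 Cells seeded at 5,000 per well were treated with compounds over a concentration series and loaded with oleic acid (400 uM, as added). Lipid droplet fluorescence (488 nm excitation, 500-530 nm channel) was read by laser-scanning cytometry and normalized to 20 uM Triacsin C.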

[2] = A High-Content qHTS Against Drug Library for the Identification of Small Molecules that Inhibit DYT1 Early Onset Primary Dystonia-Associated Cell Pathology (AID 1645839); conditions: HEK293 Flp-In EGFP-delE TorsinA, punctate imaging, 48 h; measured here: cell count cytotoxicity
Method in brief: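 Flp-In T-REx 293 cells with tetracycline-inducible EGFP-delE hTOR1A (WT EGFP-hTOR1A as reference), 800 cells/well; compound added with tetracycline, 48 h at 37 C. Fixed, permeabilized cells imaged; %pathology (punctate TorsinA) primary, cell count counterscreen.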

[3] = qHTS Assay for Inhibitors of PDE-IV (AID 607); conditions: HEK293 ACTOne CNG channel cells, membrane potential fluorescence; measured here: parental cell counter-screen;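 further: parental cells stimulated with forskolin 10 µM plus RO 20-1724 100 µM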
Method in brief: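 The readout is membrane depolarisation from a cAMP-sensing CNG channel, detected with a potential dye at ex 535/em 590. Cells were HEK293-derived (endogenous PDE-IV) at 1000 cells/well, titrated up to 22.9 uM final.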

[4] = S16 Schwann cell PMP22 intronic element beta-lactamase assay (AID 624044); conditions: S16 rat Schwann cells, PMP22 element beta-lactamase FRET, 24 h; further: nearly all actives have a fitted effect of over 15% in size
Method in brief: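 Rat S16 Schwann cells with beta-Lac driven by a PMP22 intronic element, compound-treated 24 h at 37 °C. LiveBLAzer FRET B/G read: 460 nm normalized to potassium clavulanate vs DMSO; 535 nm FRET as viability; concentration-effect curves classified.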

[5] = qHTS assay for small molecule antagonists of androgen receptor signaling (AID 588516); conditions: AR-UAS-bla HEK293, beta-lactamase ratio, antagonist mode, 16 h
Method in brief: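 Antagonist mode: inhibition of R1881-stimulated (10 nM final) bla reporter in GeneBLAzer AR HEK 293 cells, 16 h at 37C, compounds titrated. IC50 and efficacy from Hill-equation fits of 405/460–530 nm FRET ratios.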

[6] = qHTS assay for small molecule antagonists of glucocorticoid receptor signaling (AID 588533); conditions: HeLa MMTV-bla, GRE beta-lactamase ratio, antagonist mode, 18 h; measured here: W530 channel AC50;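 further: cells stimulated with 2 nM dexamethasone as agonist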
[7] = qHTS assay for small molecule antagonists of peroxisome proliferator-activated receptor delta signaling (AID 588535); conditions: HEK293T PPARd-UAS-bla, beta-lactamase FRET ratio, 18 h; 460 nm channel;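 further: cells co-treated with a PPAR-delta agonist as stimulator during compound exposure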
Method in brief: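 Antagonist-mode beta-lactamase reporter (GeneBLAzer PPAR-delta-UAS-bla) in HEK293T cells, 2% charcoal/dextran FBS, 4000 cells/well. Compound titrations, 18 h at 37 C; CCF4 ratio read, IC50 and efficacy from Hill fits.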

[8] = qHTS assay for small molecule antagonists of peroxisome proliferator-activated receptor gamma signaling (AID 588537); conditions: HEK293 PPARg-UAS-bla, beta-lactamase ratio, antagonist mode; measured here: W460 blue channel
Method in brief: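 PPARγ-UAS-bla HEK293 cells (3000/well) in 1% charcoal/dextran-stripped FBS are treated with compound, then stimulated with 50 nM rosiglitazone for 16 h at 37 °C. Read-out is CCF4 β-lactamase fluorescence after 2 h at RT. IC50 comes from Hill fits normalised to rosiglitazone and DMSO.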

[9] = qHTS assay for small molecule antagonists of vitamin D receptor signaling (AID 588541); conditions: HEK293T VDR-UAS-bla, beta-lactamase ratio, antagonist mode; measured here: W460 blue channel (cell viability)
[10] = qHTS assay for small molecule agonists of retinoid X receptor alpha signaling (AID 588544); conditions: HEK293T RXRa-UAS-bla, beta-lactamase reporter, 18 h; 530 nm emission
[11] = qHTS assay for small molecule antagonists of retinoid X receptor alpha signaling (AID 588546); conditions: HEK293T RXRa-UAS-bla, beta-lactamase ratio, antagonist mode; measured here: W530 green channel, cytotoxicity proxy;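 further: cells stimulated with 9-cis-retinoic acid as agonist; on the % scale 0 is the no-effect control and ±100 the full control effect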
Method in brief: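 Beta-lactamase reporter inhibition, read as CCF4 fluorescence ratio (ex 405, em 460/530 nm) after 2 h at RT. HEK293T UAS-bla cells, 2500/well, were stimulated with 9-cis-RA at 500 or 100 nM final alongside test compound for 18 h at 37 C.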

[12] = qHTS Assay for Modulators of Human Peripheral Myelin Protein 22 (PMP22) Expression/Activity (AID 1967); conditions: Cell-based PMP22 reporter, dual-color luciferase ratio
Method in brief: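 Mouse MSC80 Schwann line, Pmp22 promoter–CBG68 reporter, EF-alpha–CBR internal control. 24h compound exposure, 37 °C/5% CO2, DMEM + 10% FBS. Readout: corrected green/red luminescence ratio, normalized to untreated cells; concentration-response curves fitted and classified.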

[13] = measured here: cell count channel max response
[14] = measured here: lipid (BODIPY) channel AC50
[15] = measured here: lipid channel max response
[16] = measured here: cell number channel AC50
[17] = measured here: 460 nm blue channel
Tags describe the fitted curve by direction and shape.

Oc1ccc(Cl)cc1
max response [1, 13]: 23%
AC50 [1, 14]: 39.8 µM [rising, single point]
max response [1, 15]: 31.8%
AC50 [2]: 35.5 µM [falling, single point]

Cc1cccc([C@H](C)c2cnc[nH]2)c1C
AC50 [3]: 15.8 µM [rising, single point]
max response [1, 13]: 122%
AC50 [1, 16]: 4.47 µM [rising, partial curve]
AC50 [1, 14]: 7.08 µM [rising, partial curve]
max response [1, 15]: 159%
AC50 [4, 17]: 14.1 µM [falling, single point]
AC50 ([4]; measured here: 530 nm viability channel): 2.82 µM [falling, partial curve]

CC(=O)[O][Hg][c]1ccccc1
max response [1, 13]: -71.3%
AC50 [1, 16]: 8.91 µM [falling, partial curve]
max response [1, 15]: -108%
AC50 ([5]; measured here: W460 blue channel fit): 3.16 µM [falling, full curve] and 2 µM [falling, full curve]
AC50 ([5]; measured here: W530 green channel, cytotoxicity/artifact): 2 µM [rising, full curve]
AC50 [6]: 17.8 µM [falling, partial curve, poor fit]
max response [7]: -71.2%
AC50 [8]: 12.6 µM [falling, full curve]
AC50 [9]: 2.24 µM [falling, full curve] and 3.16 µM [falling, full curve]
max response [10]: -52.2% and -56%
max response [11]: -30.3% and -29.8%
AC50 [4, 17]: 1.78 µM [falling, full curve]
AC50 [2]: 0.562 µM [falling, full curve, poor fit]

COP(=S)(OC)SCn1nnc2ccccc2c1=O
max response [1, 13]: -7.5%
AC50 [1, 14]: 1.41 µM [rising, partial curve]
max response [1, 15]: -4.37%
max response [7]: -2.94% and -78.5%
AC50 [8]: 70.8 µM [rising, single point]
max response [10]: 16.3% and 22.2%
max response [11]: 18.5% and 7.65%

COc1ccc2[nH]cc(C3=CCNCC3)c2c1
AC50 [3]: 5.01 µM [falling, partial curve]
max response [1, 13]: 97.8%
AC50 [1, 16]: 1.41 µM [rising, full curve]
AC50 [1, 14]: 0.794 µM [rising, full curve]
max response [1, 15]: 3.65%

C[C@]12C=CC(=O)C=C1CCC1C2=CC[C@]2(C)[C@@H](C(=O)CN3CCN(c4cc(N5CCCC5)nc(N5CCCC5)n4)CC3)CC[C@@H]12 (stereo partly specified)
max response [1, 13]: -72.4%
AC50 [1, 16]: 7.08 µM [falling, full curve, poor fit]
max response [1, 15]: -77.3%
AC50 ([12]; measured here: green reporter channel AC50, mouse Pmp22 promoter in mouse Schwann cells): 75.7 µM [falling, single point]
AC50 ([12]; measured here: red reporter channel AC50, EF-alpha promoter control reporter in MSC80 mouse Schwann cells): 84.9 µM [falling, single point]
